Test results published in PMC4336329 (PLoS ONE, 2015).
The campaign covered roughly 310,000 compounds. About 2,200 (0.71%) showed an effect of 50% or more. Effects have a minus sign here. This is one part of the list.

molecular target: human ether-à-go-go-related gene (hERG) potassium channel (human, UniProt Q12809); assay: primary screen, population patch clamp on CHO cells stably expressing hERG
Sequence (Q12809 whole entry, looked up): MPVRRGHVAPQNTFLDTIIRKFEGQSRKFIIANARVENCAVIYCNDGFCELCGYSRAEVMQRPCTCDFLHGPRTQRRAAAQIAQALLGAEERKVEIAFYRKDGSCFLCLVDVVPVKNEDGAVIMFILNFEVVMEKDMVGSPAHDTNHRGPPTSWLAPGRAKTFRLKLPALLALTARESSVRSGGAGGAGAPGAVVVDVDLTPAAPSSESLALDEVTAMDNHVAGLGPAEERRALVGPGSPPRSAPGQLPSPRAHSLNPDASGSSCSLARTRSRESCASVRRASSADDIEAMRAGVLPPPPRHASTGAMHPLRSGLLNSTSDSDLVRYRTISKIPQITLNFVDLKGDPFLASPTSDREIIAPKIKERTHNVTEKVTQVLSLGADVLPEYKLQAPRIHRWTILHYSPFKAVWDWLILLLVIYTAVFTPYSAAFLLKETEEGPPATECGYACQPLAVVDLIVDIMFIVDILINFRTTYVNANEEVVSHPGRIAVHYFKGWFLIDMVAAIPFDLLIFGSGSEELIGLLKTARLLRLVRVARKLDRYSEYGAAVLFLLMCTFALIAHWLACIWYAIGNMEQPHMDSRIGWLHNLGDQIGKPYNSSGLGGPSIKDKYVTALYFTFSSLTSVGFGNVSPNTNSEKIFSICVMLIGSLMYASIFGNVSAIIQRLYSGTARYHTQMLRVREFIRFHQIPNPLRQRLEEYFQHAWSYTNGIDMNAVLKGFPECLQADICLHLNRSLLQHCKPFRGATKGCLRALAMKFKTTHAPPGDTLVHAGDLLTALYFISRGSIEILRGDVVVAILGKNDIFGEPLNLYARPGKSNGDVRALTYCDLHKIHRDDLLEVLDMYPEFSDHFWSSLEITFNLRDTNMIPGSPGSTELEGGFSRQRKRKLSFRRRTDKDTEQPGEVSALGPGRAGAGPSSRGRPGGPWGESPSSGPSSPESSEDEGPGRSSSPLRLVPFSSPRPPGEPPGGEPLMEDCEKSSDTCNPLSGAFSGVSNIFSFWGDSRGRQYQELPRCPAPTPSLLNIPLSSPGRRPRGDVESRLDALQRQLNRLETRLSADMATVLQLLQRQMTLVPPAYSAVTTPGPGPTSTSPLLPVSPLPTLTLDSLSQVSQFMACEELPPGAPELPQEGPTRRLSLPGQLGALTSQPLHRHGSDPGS

Going from `Cc1ccc(NC(=S)/N=C(\N)Nc2nc(C)c3cc(C)c(C)cc3n2)cc1C` to `Cc1ccc(NC(=O)CSCc2c(C)noc2C)cc1C`, the “hERG current change (%, negative = inhibition) at 1uM” value falls from 8.63% to 2.62%.

First: CCOc1cccc(N2C(=O)CC(=O)NC2=O)c1
Second: COc1cccc(NC(=O)CN2C(=O)COc3ccc(C)cc32)c1
The “hERG current change (%, negative = inhibition) at 1uM” value of the first is lower: 5.45% for the first, 14.4% for the second.

Going from `O=C(O)CSc1nnc(-c2ccccc2)c(-c2ccccc2)n1` to `O=C(O)c1ccccc1N/N=C/c1c(Sc2nnnn2-c2ccccc2)nc2ccccn2c1=O`, the “hERG current change (%, negative = inhibition) at 1uM” value falls from 15% to -14.9%.

First: Cc1c(C(=O)c2ccc(F)cc2F)c2ccccn2c1CCC#N
Second: O=C(Nc1ccc(-c2cnco2)cc1)c1ccc(F)cc1F
The “hERG current change (%, negative = inhibition) at 1uM” value of the first is lower: 4.15% for the first, 10.4% for the second.

Going from `CCOC(=O)/C(=C\c1ccccc1)C(=O)c1cc(C(C)=O)c(Nc2ccccc2)s1` to `COc1ccccc1NC(=O)N1CCCC1C(=O)NCCc1ccccc1` (centres unmarked), the “hERG current change (%, negative = inhibition) at 1uM” value rises from 4.18% to 15.6%.

Going from `CC(C)N(Cc1ccccc1)C(=O)c1ccc2nsnc2c1` to `O=C(NCc1ccccc1)c1ccc(Br)cc1`, the “hERG current change (%, negative = inhibition) at 1uM” value falls from 12.8% to 10.6%.

Going from `COc1ccc(C)cc1Cn1nnc2ccccc21` to `CCn1c(/N=C/c2ccc(OC)cc2O)nc2ccccc21`, the “hERG current change (%, negative = inhibition) at 1uM” value rises from 9.02% to 14%.

Compared with `COc1ccc(OC)c(C2=NOC(C(=O)NCC3CCCO3)C2)c1` (centres unmarked), `COc1ccc(OC)c(NC(=O)CSc2nncc(=O)n2N)c1` is higher in “hERG current change (%, negative = inhibition) at 1uM” value: -2.41% for the first, 13.9% for the second.

First: Cc1cc(Nc2ccc(F)cc2Cl)n2nc(C)nc2n1
Second: Cc1cc(C)c(NC(=O)Nc2ccccc2C)c(Cl)c1
The “hERG current change (%, negative = inhibition) at 1uM” value of the first is lower: 6.43% for the first, 16.8% for the second.

Compared with `Cc1ccc2nc(C(Cl)(Cl)Cl)nc(N/N=C/c3ccncc3)c2c1`, `COc1cccc(/C=N/NC(=O)c2[nH]nc3c2CCc2ccccc2-3)c1` is higher in “hERG current change (%, negative = inhibition) at 1uM” value: 14.7% for the first, 18.4% for the second.

Going from `Cn1c(CCNC(=O)c2ccco2)nc2cc(NC(=O)NC3CCCCC3)ccc21` to `CSCc1c(C(=O)OCC(=O)NC2CCCCC2)oc2ccccc12`, the “hERG current change (%, negative = inhibition) at 1uM” value rises from 1.45% to 7.46%.

Going from `CCN(CC)S(=O)(=O)c1ccc2c(c1)N(CC(=O)NCc1ccccn1)C(=O)CO2` to `CCOc1ccc(CNC(=O)CCS(=O)(=O)Cc2ccc(C)cc2)cc1OC`, the “hERG current change (%, negative = inhibition) at 1uM” value rises from 5.12% to 17.8%.

First: COc1cccc(C(=O)COC(=O)C2CC(=O)N(c3ccc(Oc4ccccc4OC)cc3)C2)c1 (centres unmarked)
Second: COc1ccc(C2=Nc3ccc(C)cc3C(c3ccccc3)N2CC(=O)NN)cc1 (centres unmarked)
The “hERG current change (%, negative = inhibition) at 1uM” value of the first is higher: 4.19% for the first, -9.94% for the second.

Going from `Cc1onc(-c2ccccc2Cl)c1C(=O)NCCN1CCOCC1` to `Nc1nc(NCCCN2CCOCC2)nc(Nc2ccccc2)c1[N+](=O)[O-]`, the “hERG current change (%, negative = inhibition) at 1uM” value falls from 11.8% to 5.04%.

Going from `CCCC1/C(=N/O)CC(c2ccccc2)NC1c1ccccc1` (centres unmarked) to `CC(=NCCc1c(C)[nH]c2ccc(OCc3ccccc3)cc12)C1=C(O)CC(c2ccccc2)CC1=O` (centres unmarked), the “hERG current change (%, negative = inhibition) at 1uM” value rises from 15% to 22.4%.

First: CC(=O)n1cc(/C=N/NC(=O)c2sc(C)nc2C)c2ccccc21
Second: Nc1ccc(C(=O)N/N=C/c2cn(Cc3cccc(F)c3)c3ccccc23)cc1
The “hERG current change (%, negative = inhibition) at 1uM” value of the first is higher: 19.9% for the first, 15.6% for the second.

First: COC(=O)C1CC(O)CN1C(=O)NC1CCCCC1 (centres unmarked)
Second: Cc1c2c(nc3c(C(=O)NC4CCCC4)cnn13)CCCC2
The “hERG current change (%, negative = inhibition) at 1uM” value of the first is higher: 9.8% for the first, -2.53% for the second.

Going from `Cc1cc(C(=O)COc2ccc([N+](=O)[O-])cc2)c(C)n1C1CC1` to `Cc1ccc(OCC(=O)NCc2ccc3c(c2)OCO3)c([N+](=O)[O-])n1`, the “hERG current change (%, negative = inhibition) at 1uM” value falls from 5.93% to -4.28%.

First: CCn1c(SCC(=O)c2ccc(Cl)cc2)nnc1-c1cccs1
Second: CCn1c(SCC(=O)C(C)(C)C)nnc1-c1cccnc1
The “hERG current change (%, negative = inhibition) at 1uM” value of the first is lower: -1.74% for the first, 12.3% for the second.

Compared with `N#C/C(=C1\CCCN1)c1nc(-c2ccccc2)cs1`, `O=C(NC1CCSC1=O)c1ccccc1` (centres unmarked) is higher in “hERG current change (%, negative = inhibition) at 1uM” value: -1.88% for the first, 12.3% for the second.

Going from `Cn1cc(S(=O)(=O)N2CCN(c3ccc(F)cc3)CC2)c(=O)n(C)c1=O` to `COc1ccc(N2CCN(CCCNC(=O)C3CCN(S(=O)(=O)N4CCOCC4)CC3)CC2)cc1`, the “hERG current change (%, negative = inhibition) at 1uM” value falls from 3.35% to -2.02%.

Going from `COc1ccccc1NC(=O)N1CCOCC1` to `COCCNC(=O)c1c[nH]c2ccc(S(=O)(=O)N3CCOCC3)cc2c1=O`, the “hERG current change (%, negative = inhibition) at 1uM” value rises from 19% to 25.9%.

First: OC(COc1ccc(Br)cc1)Cn1ccnc1 (centres unmarked)
Second: CC(=O)c1ccc(NC(=O)CCNS(=O)(=O)c2cc(Br)cnc2N)cc1
The “hERG current change (%, negative = inhibition) at 1uM” value of the first is higher: 10.4% for the first, 6.33% for the second.

First: Cc1ccc(N(CC(=O)NCc2ccccc2)C(=O)c2csnn2)cc1
Second: Cc1ccc(CSc2nc3ccccc3c(=O)n2CCCC(=O)NCc2ccco2)cc1
The “hERG current change (%, negative = inhibition) at 1uM” value of the first is higher: 7.71% for the first, 1.62% for the second.

Compared with `COc1ccc(CC(=O)Nc2nnc(C)s2)cc1`, `Cc1ccnc(NS(=O)(=O)c2ccc(NC(=O)c3snnc3C)cc2)n1` is higher in “hERG current change (%, negative = inhibition) at 1uM” value: 11.2% for the first, 15% for the second.

First: C/C(=N\NC(=O)c1ccc(O)cc1)c1ccc2c(c1)OCCO2
Second: O=C(c1ccc2c(c1)OCO2)N1CCc2ccccc2C1
The “hERG current change (%, negative = inhibition) at 1uM” value of the first is higher: 7.64% for the first, 5.98% for the second.

Going from `Cc1nnc(SCCn2c(N3CC(C)CC(C)C3)nc3c2c(=O)[nH]c(=O)n3C)s1` (centres unmarked) to `CCN1CCN(c2nc3c(c(=O)[nH]c(=O)n3C)n2CCSc2nc3ccccc3s2)CC1`, the “hERG current change (%, negative = inhibition) at 1uM” value falls from 7.87% to 5.71%.

Going from `Cc1ccc(-n2ncc3c2CCCC3NC(=O)CSc2ccccn2)cc1C` (centres unmarked) to `COc1ccccc1CNC(=O)C1CC2Cn3c(nc4ccccc43)C2N1C` (centres unmarked), the “hERG current change (%, negative = inhibition) at 1uM” value rises from 4.76% to 4.97%.

Compared with `S=C1NC2(CCCCC2)Nc2ccccc21`, `O=C(NCC1CCCCC1)c1ccc(=O)[nH]c1` is higher in “hERG current change (%, negative = inhibition) at 1uM” value: 12.1% for the first, 28% for the second.

Going from `O=C(CCC1CCCC1)NNC(=O)c1ccccc1O` to `O=C(COC(=O)CCC1CCCC1)Nc1ccc(Cl)cc1F`, the “hERG current change (%, negative = inhibition) at 1uM” value falls from 12.5% to -2.67%.

First: Cc1c(NC(=O)CSc2nnc(COc3ccccc3)n2-c2ccccc2)c(=O)n(-c2ccccc2)n1C
Second: Cc1ccc(C(=O)N(c2c(C)n(C)n(-c3ccccc3)c2=O)C(C)C)cc1
The “hERG current change (%, negative = inhibition) at 1uM” value of the first is higher: 13.7% for the first, 7.19% for the second.

First: CC(Cc1ccccc1)NC=O (centres unmarked)
Second: CC1CN=C(Nc2ccccc2)S1 (centres unmarked)
The “hERG current change (%, negative = inhibition) at 1uM” value of the first is lower: 14.3% for the first, 18.3% for the second.

Compared with `CC(Cc1ccccc1Sc1ccccc1O)N(C)C.Cl` (centres unmarked), `CC1(C)Cc2cccc(OCC(=O)OCC(=O)c3ccccc3)c2O1` is lower in “hERG current change (%, negative = inhibition) at 1uM” value: 3.67% for the first, -2.67% for the second.

Going from `Cc1ccc(C(C)C)c(OCC(=O)NNC(=O)Cn2[nH]c(=O)c3ccccc3c2=O)c1` to `Cc1ccc(C(=O)Nc2c(-c3cccs3)c(=O)c3ccccc3n2C)cc1`, the “hERG current change (%, negative = inhibition) at 1uM” value falls from 3.51% to -1.2%.

First: CCOC(=O)C1(CCOc2ccccc2)CCN(CC2CC2)CC1
Second: O=C(CCC1CCCN(C(=O)Cn2cnnn2)C1)NCc1ccccc1F (centres unmarked)
The “hERG current change (%, negative = inhibition) at 1uM” value of the first is lower: -22.2% for the first, 12.5% for the second.

Going from `O=C(COC(=O)c1ccc(O)cc1)Nc1cc(C(F)(F)F)ccc1Cl` to `CN(CC(=O)Nc1c(Cl)cccc1Cl)C(=O)CC1Sc2ccccc2NC1=O` (centres unmarked), the “hERG current change (%, negative = inhibition) at 1uM” value falls from 6.99% to 1.8%.

Compared with `O=C(Nc1ccc(Cl)c(S(=O)(=O)N2CCOCC2)c1)C1CCC1`, `Cc1ccc(C(=O)Nc2ccon2)cc1S(=O)(=O)N1CCCCCC1` is lower in “hERG current change (%, negative = inhibition) at 1uM” value: 5.13% for the first, -7.14% for the second.

Going from `COc1ccc(N2CCN(C(=O)c3ccc(CS(=O)Cc4ccc(Cl)cc4)o3)CC2)cc1` (centres unmarked) to `O=C(c1cc(-c2ccc(Cl)c(Cl)c2)on1)N1CCN(c2ccccc2)CC1`, the “hERG current change (%, negative = inhibition) at 1uM” value rises from -4.74% to 6.15%.

First: COc1cc(C(=O)Nc2ccc3c(c2)Cc2ccccc2-3)cc(OC)c1OC
Second: COc1cc(NC(=O)c2cc(OC)c(OC)c(OC)c2)cc(-n2cnnn2)c1
The “hERG current change (%, negative = inhibition) at 1uM” value of the first is lower: 5.91% for the first, 16.3% for the second.

Compared with `CCSc1nc2sc3c(c2c(=O)[nH]1)CCCC3`, `CCSc1nc(O)cc(=O)[nH]1` is higher in “hERG current change (%, negative = inhibition) at 1uM” value: 12.9% for the first, 16.4% for the second.

Going from `CCN(CC)CCOc1c(C)cccc1Cl` to `CCCn1c(N)c(C(=O)CN(C)CC(=O)Nc2cccc(F)c2)c(=O)[nH]c1=O`, the “hERG current change (%, negative = inhibition) at 1uM” value falls from -11.9% to -73.1%.

Compared with `CC(C)(C)NS(=O)(=O)c1ccc(NS(=O)(=O)Cc2ccccc2)cc1`, `O=C(NCCN1CCOCC1)c1cccc(S(=O)(=O)N(Cc2ccccc2)c2ccccc2)c1` is higher in “hERG current change (%, negative = inhibition) at 1uM” value: 10% for the first, 10.3% for the second.

First: Cn1cnnc1SCC(=O)Nc1ccc(Cl)cc1
Second: CNC(=O)c1cc2cc(Br)ccc2s1
The “hERG current change (%, negative = inhibition) at 1uM” value of the first is lower: 4.92% for the first, 5.98% for the second.

Compared with `CC1CCCN(C(=O)C(=O)c2cn(CC(=O)N3CCCCCC3)c3ccccc23)C1` (centres unmarked), `CCOC(=O)N1CCN(C(=O)CCn2c(=S)[nH]c3ccsc3c2=O)CC1` is higher in “hERG current change (%, negative = inhibition) at 1uM” value: 9.82% for the first, 15.4% for the second.

First: COc1cc2c(cc1OC)C(c1cc(Br)ccc1O)N(C(C)=O)CC2 (centres unmarked)
Second: CCCc1[nH]nc2c1C(c1cn[nH]c1-c1ccc(F)cc1)C(C#N)=C(N)O2 (centres unmarked)
The “hERG current change (%, negative = inhibition) at 1uM” value of the first is higher: 9.58% for the first, 4.11% for the second.

Going from `Cc1ccc(-c2nc(CN(Cc3c(C)nn(C)c3C)C(C)C)c(C)o2)o1` to `Cn1c(CCNC(=O)OC(C)(C)C)n[nH]c1=S`, the “hERG current change (%, negative = inhibition) at 1uM” value falls from 7.18% to 6.43%.
